According to article PMC4176354:
These are yes or no findings as the source states them, for the method shown. Tags and fused reporters may be left off the sequences shown. Each block holds one binder with its values, some of them ahead of it.

Assays:
[1] = target: T1, Mec3 (two-hybrid fusion) (S. cerevisiae) (UniProt Q02574); assay: two-hybrid; Gal4 DB bait (pMB27) and Gal4 AD prey (pMB29) in diploid cdc13-1 reporter strains; growth on SC-His-Leu-Trp and SC-Ade-Leu-Trp, spotted at 23-29°C (23°C and 27°C shown); interactions of Ddc1 seem less strong at 27°C than at 23°C
T1 sequence: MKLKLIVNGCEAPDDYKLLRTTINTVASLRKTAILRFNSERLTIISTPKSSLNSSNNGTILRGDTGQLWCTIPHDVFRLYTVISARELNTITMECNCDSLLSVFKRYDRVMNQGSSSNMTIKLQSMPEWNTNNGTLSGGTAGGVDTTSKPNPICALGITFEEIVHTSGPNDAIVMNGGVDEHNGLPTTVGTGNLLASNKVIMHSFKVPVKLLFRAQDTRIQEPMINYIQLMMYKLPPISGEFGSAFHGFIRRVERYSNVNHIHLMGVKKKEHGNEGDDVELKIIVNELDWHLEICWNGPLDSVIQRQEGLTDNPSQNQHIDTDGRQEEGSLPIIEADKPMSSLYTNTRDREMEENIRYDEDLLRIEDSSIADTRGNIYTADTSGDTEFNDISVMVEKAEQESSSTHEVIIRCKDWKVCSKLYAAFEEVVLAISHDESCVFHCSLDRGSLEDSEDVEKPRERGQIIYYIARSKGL

[2] = target: T2, Rad17 (two-hybrid fusion) (S. cerevisiae) (UniProt P48581); assay: as above
T2 sequence: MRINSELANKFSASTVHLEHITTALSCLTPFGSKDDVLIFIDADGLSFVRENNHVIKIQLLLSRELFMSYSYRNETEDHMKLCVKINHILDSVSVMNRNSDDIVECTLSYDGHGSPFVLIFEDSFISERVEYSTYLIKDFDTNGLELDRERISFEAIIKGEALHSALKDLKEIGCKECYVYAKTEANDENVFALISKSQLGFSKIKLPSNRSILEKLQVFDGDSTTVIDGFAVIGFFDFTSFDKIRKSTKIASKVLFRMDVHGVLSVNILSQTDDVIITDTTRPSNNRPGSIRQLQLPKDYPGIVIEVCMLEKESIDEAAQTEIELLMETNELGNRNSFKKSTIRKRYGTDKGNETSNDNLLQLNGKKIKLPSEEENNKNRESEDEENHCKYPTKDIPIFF

- binding [1]: no binding
- binding [2]: no binding
B1: Exo1 (two-hybrid fusion) (protein, UniProt P39875 1-702)
chain: MGIQGLLPQLKPIQNPVSLRRYEGEVLAIDGYAWLHRAACSCAYELAMGKPTDKYLQFFIKRFSLLKTFKVEPYLVFDGDAIPVKKSTESKRRDKRKENKAIAERLWACGEKKNAMDYFQKCVDITPEMAKCIICYCKLNGIRYIVAPFEADSQMVYLEQKNIVQGIISEDSDLLVFGCRRLITKLNDYGECLEICRDNFIKLPKKFPLGSLTNEEIITMVCLSGCDYTNGIPKVGLITAMKLVRRFNTIERIILSIQREGKLMIPDTYINEYEAAVLAFQFQRVFCPIRKKIVSLNEIPLYLKDTESKRKRLYACIGFVIHRETQKKQIVHFDDDIDHHLHLKIAQGDLNPYDFHQPLANREHKLQLASKSNIEFGKTNTTNSEAKVKPIESFFQKMTKLDHNPKVANNIHSLRQAEDKLTMAIKRRKLSNANVVQETLKDTRSKFFNKPSMTVVENFKEKGDSIQDFKEDTNSQSLEEPVSESQLSTQIPSSFITTNLEDDDNLSEEVSEVVSDIEEDRKNSEGKTIGNEIYNTDDDGDGDTSEDYSETAESRVPTSSTTSFPGSSQRSISGCTKVLQKFRYSSSFSGVNANRQPLFPRHVNQKSRGMVYVNQNRDDDCDDNDGKNQITQRPSLRKSLIGARSQRIVIDMKSVDERKSFNSSPILHEESKKRDIETTKSSQARPAVRSISLLSQFVYKGK

- binding [1]: no binding
- binding [2]: no binding
B2: Sgs1 (two-hybrid fusion) (protein, UniProt P35187 1-1447)
chain: MVTKPSHNLRREHKWLKETATLQEDKDFVFQAIQKHIANKRPKTNSPPTTPSKDECGPGTTNFITSIPASGPTNTATKQHEVMQTLSNDTEWLSYTATSNQYADVPMVDIPASTSVVSNPRTPNGSKTHNFNTFRPHMASSLVENDSSRNLGSRNNNKSVIDNSSIGKQLENDIKLEVIRLQGSLIMALKEQSKLLLQKCSIIESTSLSEDAKRLQLSRDIRPQLSNMSIRIDSLEKEIIKAKKDGMSKDQSKGRSQVSSQDDNIISSILPSPLEYNTSSRNSNLTSTTATTVTKALAITGAKQNITNNTGKNSNNDSNNDDLIQVLDDEDDIDCDPPVILKEGAPHSPAFPHLHMTSEEQDELTRRRNMRSREPVNYRIPDRDDPFDYVMGKSLRDDYPDVEREEDELTMEAEDDAHSSYMTTRDEEKEENELLNQSDFDFVVNDDLDPTQDTDYHDNMDVSANIQESSQEGDTRSTITLSQNKNVQVILSSPTAQSVPSNGQNQIGVEHIDLLEDDLEKDAILDDSMSFSFGRQHMPMSHSDLELIDSEKENEDFEEDNNNNGIEYLSDSDLERFDEERENRTQVADIQELDNDLKIITERKLTGDNEHPPPSWSPKIKREKSSVSQKDEEDDFDDDFSLSDIVSKSNLSSKTNGPTYPWSDEVLYRLHEVFKLPGFRPNQLEAVNATLQGKDVFVLMPTGGGKSLCYQLPAVVKSGKTHGTTIVISPLISLMQDQVEHLLNKNIKASMFSSRGTAEQRRQTFNLFINGLLDLVYISPEMISASEQCKRAISRLYADGKLARIVVDEAHCVSNWGHDFRPDYKELKFFKREYPDIPMIALTATASEQVRMDIIHNLELKEPVFLKQSFNRTNLYYEVNKKTKNTIFEICDAVKSRFKNQTGIIYCHSKKSCEQTSAQMQRNGIKCAYYHAGMEPDERLSVQKAWQADEIQVICATVAFGMGIDKPDVRFVYHFTVPRTLEGYYQETGRAGRDGNYSYCITYFSFRDIRTMQTMIQKDKNLDRENKEKHLNKLQQVMAYCDNVTDCRRKLVLSYFNEDFDSKLCHKNCDNCRNSANVINEERDVTEPAKKIVKLVESIQNERVTIIYCQDVFKGSRSSKIVQANHDTLEEHGIGKSMQKSEIERIFFHLITIRVLQEYSIMNNSGFASSYVKVGPNAKKLLTGKMEIKMQFTISAPNSRPSTSSSFQANEDNIPVIAQKSTTIGGNVAANPPRFISAKEHLRSYTYGGSTMGSSHPITLKNTSDLRSTQELNNLRMTYERLRELSLNLGNRMVPPVGNFMPDSILKKMAAILPMNDSAFATLGTVEDKYRRRFKYFKATIADLSKKRSSEDHEKYDTILNDEFVNRAAASSNGIAQSTGTKSKFFGANLNEAKENEQIINQIRQSQLPKNTTSSKSGTRSISKSSKKSANGRRGFRNYRGHYRGRK
